# Test results taken from paper PMC12136788.
# The list shows a part of the results.
# B1: chr1:71529667:71529668:-_ENSG00000132485_ENST00000254821|hu_mus|FALSE|FALSE (ssRNA)
# RNA: GGGAGUUCUACAGUCCGACGAUCUUGCUGCUGAAGAGACUGUUAAAGAGAAACCUUUUAACUUUUAAACCAGAGAACAAAAUGGAUCUCAAGUGACCAGAUUUUAAUUUGAGAAAUAAAACUCCAAAAGCAUUUUAAGCCAUACAACAGAGGAUUGAGCAUCA
# B2: chr4:115894766:115894767:+_ENSMUSG00000028698_ENSMUST00000030464|mus_hu|mus_mus_mus_hu_True|1_78 (ssRNA)
# RNA: GGGAGUUCUACAGUCCGACGAUCUUCCACACGGAAAUGUACUUCGGGUUUUCCAACGCCAGUACAAAGUCCGGCCAAACUACCCGAACAGGGUCCUCCCCCUCUCUCCUACAGAACACAACAAAAUGCCCCCGAACCCCGAACCAACAGAGGAUUGAGCAUCA
# B3: chr2:42797587:42797588:+_ENSG00000057935_ENST00000405094|hu_hu|motif|central (ssRNA)
# RNA: GGGAGUUCUACAGUCCGACGAUCAUAAAAGCAUACUACUUUUGCUUCCACGUUGCCACUUGCAGUCUUGUUGAGUUCUUCGGUCCUUCUUAUUAGGUAUGGGUUGCUGGAGGAAUUCUCAAAGUAGACAUAAUCUCCGACCCGCAACAGAGGAUUGAGCAUCA
# B4: chr11:87044496:87044497:-_ENSMUSG00000046442_ENSMUST00000055438|mus_hu|motif|central (ssRNA)
# RNA: GGGAGUUCUACAGUCCGACGAUCUGGAAUAUCAUGAGUCUUUCUGAGCUUCCUCAUGUUUUCACUGUACCCUUUCCAACGGUUUUGCCUCCAUGGCAGAGAACUUCUUAUCCUAUUUCUCUUCCCACUUCCAGUAAGUGAGGACAACAGAGGAUUGAGCAUCA
# B5: chr11:98549071:98549072:+_ENSMUSG00000017221_ENSMUST00000017365|mus_mus|FALSE|FALSE (ssRNA)
# RNA: GGGAGUUCUACAGUCCGACGAUCAUCCAGCUUGUCCAGGAACUCAUAGACCCGGGCGUGAUAAUAGUAACACUUGGCAGCUACGAGGUCCAGGGCUCGGCGGUUCUGAGUGCUGAUCUUCUGCAUCAGGUCAUCAGAGAUUUUCAACAGAGGAUUGAGCAUCA
# B6: chr2:9570881:9570882:+_ENSG00000119203_ENST00000238112|hu_mus|hu_hu_hu_mus_False|8_58 (ssRNA)
# RNA: GGGAGUUCUACAGUCCGACGAUCACUUGUCUUCUGAAGGAACCAGGGCAGGGCUCCACAGUGAUCCAAAUGGAAAUGACUAAUUAACAGAAGGUCGAUCUCAGCUGGGUCGAUAAGGUCAAUGUAAGGAAGAGCAUCCAUUCCCAACAGAGGAUUGAGCAUCA
# B7: chr7:135832113:135832114:+_ENSMUSG00000042105_ENSMUST00000118605|mus_hu|FALSE|FALSE (ssRNA)
# RNA: GGGAGUUCUACAGUCCGACGAUCGCAGGAAAAAUAUAACCCCACAGGAACUUUAACCAUAAGCCCUGCAAAAAGGAGAAAAAUCUUGAAAGUCAUAGCCACAACGCCCUCAGACUUGGGCUCGGCUGCUGCGGCAGUGGCAGCCAACAGAGGAUUGAGCAUCA
# B8: chr1:163117127:163117128:-_ENSG00000143248_ENST00000313961|hu_mus|hu_hu_hu_mus_False|1_68 (ssRNA)
# RNA: GGGAGUUCUACAGUCCGACGAUCUGCUACAAAGGAUGUAACUCAACUCACAGGGCAACUUUUGGAAGCCUGGCUAAAUGACUACUUGAUUAGCUCCUUAUAAAAUUCAGAGCGCACAAAGCGGGGCAGAGAAUCCUUUUCCAUCAACAGAGGAUUGAGCAUCA
# B9: chr12:39756943:39756944:-_ENSG00000139116_ENST00000544797|hu_mus|hu_hu_hu_mus_False|18_108 (ssRNA)
# RNA: GGGAGUUCUACAGUCCGACGAUCGGUUUGGCUAUUACCCCCAAGGGAAUCCUGCAAGAGUCUUGUCAGCUUAGAGUCUCUGUAAGGGACAUGGGUGGCUCUCUUGCUCUUGUCCCCCAAGGCACUUAUUACAUUCCCAAGAGCCAACAGAGGAUUGAGCAUCA
# B10: 28714194_28714314_1682_CDS_ENSMUSG00000048271_ENSMUST00000114884|mouse|control|control (ssRNA)
# RNA: GGGAGUUCUACAGUCCGACGAUCAGUGAACGGUAAGGGACUCUGAGUAGGAACAGGAUGGCUGCUGUUCAGGAGCGUGGGAGGAGGCGGCGGUGGAGGAGGACUUCGCUGUUCCAAAAAAAGAUGACUGGGGAAUCUUGGUUCCAACAGAGGAUUGAGCAUCA
# B11: chr6:41757443:41757444:+_ENSG00000214736_ENST00000398881|hu_mus|hu_hu_hu_mus_False|68_108 (ssRNA)
# RNA: GGGAGUUCUACAGUCCGACGAUCGAACUGUCUGCUGGCAACAUCUCAGCCGACACUGGGGGAUGGGGGAACAAAAGGGGGGGGUUCAGGCAAGGAGAGGGAGUCAACUUCAGCUGCCACUCAGGUAGGAUCUUGUGGUCACAGCAACAGAGGAUUGAGCAUCA
# B12: chr2:230653580:230653581:-_ENSG00000153827_ENST00000389045|hu_mus|FALSE|FALSE (ssRNA)
# RNA: GGGAGUUCUACAGUCCGACGAUCAGUGAGCCAUGUUGGGAUGUUUCCUGUCAUGAUUACUAGAGGGUCUUGAAGCUGCCUAUUUGCUUUUGCUGUUAAUUUACUGUUAAUAAAUUCACUAGUUGGAAUAAUCUCCUUGCACAUCAACAGAGGAUUGAGCAUCA
# B13: chr12:96663167:96663168:+_ENSG00000111145_ENST00000228741|hu_hu|FALSE|FALSE (ssRNA)
# RNA: GGGAGUUCUACAGUCCGACGAUCAUGGAUCUAGAGCAUACAUUAAUCCCAGUUUCCAAAGGAAAAGAAAGAAUCAGAUCUAUAGUCAUUUAAAUAUUUCCAAUCAGCAUUUACGUAAACAAGUAUACUAAAAAUAGUAGUUUUCAACAGAGGAUUGAGCAUCA
# B14: chr19:60011576:60011577:-_ENSMUSG00000040022_ENSMUST00000171986|mus_mus|motif|central (ssRNA)
# RNA: GGGAGUUCUACAGUCCGACGAUCUUUUGCUGUAAACGGGUUAGUUGACUCAUAUUCAAAAUAGUCCUGCCGGUUUUCACGGAAAGCACUAGGUGAUUUCAAGUCACAUGGGCUAUCAGAUCCACCAUUGUUCAGCUUGUCAGGCAACAGAGGAUUGAGCAUCA
# B15: chr11:116197844:116197845:-_ENSMUSG00000052949_ENSMUST00000100202|mus_mus|motif|central (ssRNA)
# RNA: GGGAGUUCUACAGUCCGACGAUCAGCACACGCACGCACACACACACAUACACACACACAUACACACAGGUGUUCAGGCCCGGAAACAAAGUGUGCAGCCAGCACGCCAACACCAGAUGGACAGGACUAGUUCCCCAGUGGGAUCAACAGAGGAUUGAGCAUCA
# B16: chr11:23762696:23762697:-_ENSMUSG00000020273_ENSMUST00000020513|mus_hu|FALSE|FALSE (ssRNA)
# RNA: GGGAGUUCUACAGUCCGACGAUCACAAUAAAGGUUUUAAACGUUUCUCUUUGAAAAGAUGGUAUCUUACAGUACAUACAAAAAUACUCUGAAAAUACAUACGACUUCAUUUACAAAACACUGAAUCAACAUAUUACAAGAAUUCAACAGAGGAUUGAGCAUCA
# B17: chr15:84027467:84027468:+_ENSMUSG00000022437_ENSMUST00000023071|mus_mus|FALSE|FALSE (ssRNA)
# RNA: GGGAGUUCUACAGUCCGACGAUCUUUAGCCUUAAAGACCUCUCCGAUUUCACAAAUGAUGAUGUCAUCCUUAGUCCGCCCAAGUCCAUCAAAAUGAACAUGCUGAACCACCACAUCUUUGUUUUCCAGGAUUUCCUGUUUCGCCAACAGAGGAUUGAGCAUCA
# B18: chr2:65331917:65331918:-_ENSG00000138069_ENST00000409751|hu_mus|FALSE|FALSE (ssRNA)
# RNA: GGGAGUUCUACAGUCCGACGAUCGAAAUCCACACCAAUUGUGCUGAUGUAGCUUUCCGUAUACGUAUCAUCUGCAAACCUAAGGAGAAGGCAGGACUUUCCAACCCCAGAAUCGCCAAUCAGAAGUAACUUGAAUAAAUAAUCCAACAGAGGAUUGAGCAUCA
# B19: 21271043_21271163_101_3pUTR_ENSMUSG00000001891_ENSMUST00000060895|mouse|control|control (ssRNA)
# RNA: GGGAGUUCUACAGUCCGACGAUCGUUGGGGGCCUGGAAUCAGGUCUCGCACGCUGCACGAGCGUGGCCGAGGCGACCUCCCCUCCGCUCCCGUCACACGCAAACACCUGGAGCCUGGCGCCAGCGUGCGCAGCCCCUGACCCUCAACAGAGGAUUGAGCAUCA
# B20: chr11:86533089:86533090:-_ENSMUSG00000047126_ENSMUST00000103186|mus_hu|FALSE|FALSE (ssRNA)
# RNA: GGGAGUUCUACAGUCCGACGAUCACGCUGCAGUAGGCCAGCCUUUUCACACAGUUGAGCAAUAUGAGCCCGGUCAUAAUGUGUGAACAUCUGAUUGCCUAGAAUAGCAUCUGCAACUUGAGGCGCAUGCAUAAGGUUCAUCUCCAACAGAGGAUUGAGCAUCA
# B21: chr14:78183846:78183847:+_ENSG00000119705_ENST00000557342|hu_hu|hu_hu_hu_mus_False|1_38 (ssRNA)
# RNA: GGGAGUUCUACAGUCCGACGAUCUCUCAGAAAUCUUUCUUCAUCAGAUGUUUGAGCUCCGUGCAAAGCCUUUGCUCUUUGAGCUUGAACGUGGAUCUUUACUCCAUAAAGCACUGUCAGAAAAGGUAAUUUUUUUUUCCGAAGCAACAGAGGAUUGAGCAUCA
# B22: 31639799_31640545_924_3pUTR_ENSMUSG00000024037_ENSMUST00000171171|mouse|control|control (ssRNA)
# RNA: GGGAGUUCUACAGUCCGACGAUCAGCACAAACUGGUCAUCAGGACUCACAGCCACGUCUAGCAGCAUGGAGAGGUGCCCAAGCUCCAGCCUGCCACAUCCAUCUGGCUCCAGCACCGAAAAGGAGUAGACGUCUCCAGACUUGCAACAGAGGAUUGAGCAUCA
# Molecular target: T1, UNK ZnF1-3 (human, UniProt Q9C0B0 31-174)
# T1 sequence: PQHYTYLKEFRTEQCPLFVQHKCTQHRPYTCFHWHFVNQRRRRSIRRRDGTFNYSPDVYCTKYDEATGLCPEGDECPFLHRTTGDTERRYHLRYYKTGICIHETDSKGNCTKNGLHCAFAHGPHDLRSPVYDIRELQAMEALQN
# Experiment: nsRBNS (natural sequence RNA bind-n-seq); RBNS binding buffer (assumed for nsRBNS): 25 mM Tris pH 7.5, 150 mM KCl, 3 mM MgCl2, 0.01% Triton X-100, 500 ug/ml BSA, 20 U/ml SUPERase-In, 4 C; UNK is unkempt and MSI1 is Musashi-1; names of the RNAs are library labels; protein concentration not given here; high values mean tight binding
row,Binder,binding signal
1,B1,1.86 enrichment R
2,B2,1.03 enrichment R
3,B3,0.932 enrichment R
4,B4,0.46 enrichment R
5,B5,0.933 enrichment R
6,B6,1.88 enrichment R
7,B7,1.14 enrichment R
8,B8,1.24 enrichment R
9,B9,0.579 enrichment R
10,B10,1.71 enrichment R
11,B11,2.1 enrichment R
12,B12,0.899 enrichment R
13,B13,0.59 enrichment R
14,B14,0.688 enrichment R
15,B15,2.17 enrichment R
16,B16,0.65 enrichment R
17,B17,0.847 enrichment R
18,B18,1.33 enrichment R
19,B19,0.613 enrichment R
20,B20,0.887 enrichment R
21,B21,0.875 enrichment R
22,B22,1.39 enrichment R
